Measured values as given in PubChem BioAssay AID624296 (National Center for Advancing Translational Sciences (NCATS), 2012).
The whole screen tested about 350,000 compounds, of which about 9,900 (2.8%) were called active. Inconclusive means that the source gave no clear call. Such entries were picked first, then a sample of the others. Calls come from the whole dose curve; as a rule, active = well fitted activation curve with a large enough effect; inconclusive = small, poorly fitted or top-dose-only effect; inactive = no such curve, though single readings can be large or run the other way. No potency is given beside an inconclusive call; the fits are too rough.

Experiment: A quantitative high throughput screen for small molecules that induce DNA re-replication in MCF 10a normal breast cells. Note: nearly all actives have a fitted effect of over 50% in size.
Conditions: MCF 10A DNA re-replication, Hoechst nuclear intensity, 48 h; series mostly up to 46.1 µM
Potency is the fitted concentration of half-maximal effect; tags give direction and shape of the fitted curve.

Row | SMILES | Potency
1 | Cc1ccc(C2=NN(C(=O)c3ccccc3F)C(c3ccccc3F)C2)cc1 (centres undefined) | inconclusive [activator, single point]
2 | CN(C)CCCNC(=S)N1CCN(c2nc(-c3ccccc3)cs2)CC1 | inconclusive [activator, partial curve, poor fit]
3 | CCN(CC(=O)Nc1cc(S(=O)(=O)N2CCOCC2)ccc1Cl)Cc1ccccc1 | inconclusive [activator, single point]
4 | CC(C)Cn1cnc2c(SCCc3ccccc3)nc(N)nc21 | inconclusive [activator, partial curve, poor fit]
5 | CCOCCCNCc1ccc(OCc2ccccc2C)c(OC)c1 | inconclusive [activator, partial curve, poor fit]
6 | N#CCCC1CCCC=C1N(Cc1ccccc1)C(=O)C(Cl)Cl (centres undefined) | active: 10.3 µM
7 | O=S(=O)(Nc1ccc(O)c(Sc2nc3ccccc3s2)c1)c1ccc(F)cc1 | inconclusive [activator, single point]
8 | O=C(CCS(=O)(=O)c1ccccc1)NCCS(=O)(=O)c1ccccc1 | inactive
9 | Cc1ccc(C(O)CCc2ccc(N)cc2)cc1 (centres undefined) | inactive
10 | CC(=O)c1sc(NC(=O)CN2C(=O)C3CCCCC3C2=O)nc1-c1ccccc1 (centres undefined) | inactive
11 | O=C(Cn1cnc2c(oc3nc4c(cc32)CCCC4)c1=O)Nc1cccc(Cl)c1 | active: 18.4 µM
12 | CCS(=O)(=O)N1N=C(c2cccc(NS(C)(=O)=O)c2)CC1c1ccccc1 (centres undefined) | inactive
13 | C[C@]12c3[nH]c4ccc(Cl)cc4c3CCN1C(=O)[C@@H](CC(=O)NCC13CC4CC(CC(C4)C1)C3)C[C@@H]2C(=O)N1CCOCC1 | inconclusive [activator, partial curve, poor fit]
14 | Cc1ccc(SCCOCCN2CCOCC2)cc1 | inconclusive [activator, full curve]
15 | CCN(CC)C(=O)[C@H]1C[C@H](CC(=O)NCCCOC)C(=O)N2CCc3c([nH]c4cc(CCC(=O)N(C)C)ccc34)[C@]12C | inconclusive [activator, full curve, poor fit]
16 | Cc1ccc(-c2noc(CCC(=O)NCc3ccc4c(c3)OCO4)n2)cc1 | inactive
17 | CCc1nc(N[C@@H](Cc2c[nH]c3ccccc23)C(=O)O)c2oc3ccccc3c2n1 | inconclusive [activator, single point]
18 | O=C(CSc1nc2ccccc2c(=O)n1-c1ccc(F)cc1F)Nc1ccc(N2CCOCC2)cc1 | inconclusive [activator, single point]
19 | Cc1ccc(NC(=O)c2cc(N3C(=O)C=CC3=O)ccc2Cl)cc1C | inconclusive [activator, single point]
20 | Cc1onc(-c2ccccc2Cl)c1C(=O)O/N=C(\N)c1ccc([N+](=O)[O-])o1 | inconclusive [activator, single point]
21 | CC1(C)CC(=O)C(C(c2cccnc2)C2C(=O)CC(C)(C)CC2=O)C(=O)C1 | inconclusive [activator, partial curve, poor fit]
22 | CC(C)C[C@H](NC(=O)N1CCn2c1nc1ccccc12)C(=O)NCc1ccccc1 | inactive
23 | O=C(CCN1C(=O)c2ccccc2C1=O)N1CCN(Cc2ccc(Cl)cc2Cl)CC1 | inactive

Row | SMILES | Potency
24 | CC(=O)N1c2ccc(S(=O)(=O)NCCC(=O)NCc3ccc(F)cc3)cc2CC1C (centres undefined) | inactive
25 | CCOc1cc(/C=C/C(=O)c2ccc(OC)c(CN3CCOCC3)c2)cc(Br)c1O | inconclusive [activator, single point]
26 | Cc1ccc(C(CC(=O)c2ccco2)SCCO)cc1 (centres undefined) | inconclusive [activator, single point]
27 | O=C(NCCCc1ccccc1)c1ccccc1O | active: 14.6 µM
28 | COc1ccc(S(=O)(=O)n2ccc(-c3ccc4c(c3)CCC(C)(C)O4)n2)cc1 | inconclusive [activator, single point]
29 | COc1cc(S(=O)(=O)N2CCN(c3ccccc3)CC2)ccc1Cl | inactive
30 | Cc1ccccc1Cn1c(=N)n(CC(O)c2ccco2)c2ccccc21 (centres undefined) | inactive
31 | COc1ccc(-c2sc3ccc(OC)cc3c2-c2ccc(OC)c(F)c2)cc1 | inconclusive [activator, single point]
32 | COc1ccccc1C=NNC(=O)c1ccncc1 | inactive
33 | CCO[C@H]1OC(C(=O)NCc2ccccc2)=C[C@@H](c2ccc(Br)cc2)[C@@H]1CCCO | inactive
34 | CC(C)(C)NC(=O)CN(C(=O)c1snc(C(=O)NC2CCCCC2)c1N)c1ccc(F)cc1 | inconclusive [activator, full curve, poor fit]
35 | CC(=O)OC1CCC2C3CCC4=C(CC(F)C(=O)C4)C3CCC12C (centres undefined) | inconclusive [activator, single point]
36 | Cc1ccc(-c2csc3ncn(-n4c(C)ccc4C)c(=O)c23)o1 | inactive
37 | CC(Oc1ccc(C#N)cc1)C(=O)c1ccc(F)c(F)c1 (centres undefined) | inactive
38 | CN(Cc1ccc(F)cc1)C(=O)C(c1ccccc1)c1ccccc1 | inactive
39 | Cc1ccc(S(=O)(=O)/N=C(\CSC(N)=O)Nc2ccccc2)cc1 | inconclusive [activator, single point]
40 | C=CCNC(=S)N/N=C/c1ccc(-c2ccc(Cl)cc2Cl)o1 | active: 13 µM
41 | CCN(CC)CCOc1ccccc1C(=O)CCc1ccccc1 | inactive
42 | O=C(Nc1nc(-c2cccnc2)cs1)c1ccc([N+](=O)[O-])cc1 | inconclusive [activator, single point]
43 | N#Cc1ccc(OCC(=O)n2cc(C(=O)c3cc(Cl)cc(Cl)c3O)cn2)cc1 | inconclusive [activator, single point]
44 | CC(=O)C1=C(O)C(=O)N(c2cccnc2)C1c1ccc(Cl)cc1 (centres undefined) | inactive
45 | COC(=O)c1cn(C(=O)c2cc(C)cc(C)c2)c2ccccc12 | inactive
46 | CCN(CC)c1nc(N)c(C#N)c(CC#N)c1C#N | inconclusive [activator, partial curve, poor fit]

Row | SMILES | Potency
47 | Oc1[nH]c2ccccc2c1N=Nc1nc(Nc2ccccc2)nc(N2CCOCC2)n1 | inconclusive [activator, single point]
48 | CCn1c(=O)c([N+](=O)[O-])c(N2CCN(Cc3ccc4c(c3)OCO4)CC2)c2ccccc21 | inconclusive [activator, partial curve, poor fit]
49 | CCOC(=O)c1c(NC(=O)CN2C(=O)NC3(CCC(CC)CC3)C2=O)sc(C)c1-c1ccc(C)cc1 (centres undefined) | inconclusive [activator, single point]
50 | CC(=O)N/C(=C/c1ccc(OS(=O)(=O)c2ccc(C)cc2)cc1)C(=O)Nc1ccc(C(=O)O)cc1 | inactive
51 | CN1CCN(S(=O)(=O)c2ccc(NC(=O)COc3ccccc3)cc2)CC1 | inconclusive [activator, partial curve, poor fit]
52 | CCNc1nc(NCC)n2c(SCC(=O)Nc3ccccc3OC(F)F)nnc2n1 | inconclusive [activator, single point]
53 | COc1cccc(NC(=O)CN2CCN(c3nc(-c4cccc(OC)c4)cs3)CC2)c1 | inconclusive [activator, single point]
54 | CCCCCOc1ccc(C(=O)NCC2(c3ccccc3)CCOCC2)cc1 | inactive
55 | Nc1ncnc2c1ncn2[C@@H]1O[C@H](CNC(=O)[C@@H](N)Cc2ccccc2)[C@@H](O)[C@H]1O | inactive
56 | Cc1cccc(NC(=S)NC(C)C(c2ccccc2)N2CCN(C)CC2)c1C (centres undefined) | inactive
57 | CC(C)c1ccc(C(=O)NCCCN2CCN(CCCNC(=O)c3ccc(C(C)C)cc3)CC2)cc1 | active: 23.1 µM
58 | CNC(=O)c1ccccc1Sc1ccccc1C#N | inactive
59 | O=C(C1=C[C@H](c2ccc(Br)cc2)C[C@H](OCc2ccc(CO)cc2)O1)N1CCN(Cc2ccc3c(c2)OCO3)CC1 | inconclusive [activator, single point]
60 | CCN1CCCC1CN(Cc1cc2ccc(C)cc2[nH]c1=O)C(=S)Nc1ccc(OC)cc1 (centres undefined) | inconclusive [activator, single point]
61 | O=C(Nc1ccccc1C(=O)N1CCN(Cc2ccccc2)CC1)c1ccc(F)cc1 | inactive
62 | CSC1=NS(=O)(=O)c2c(C)nn(C)c2S1 | inconclusive [activator, single point]
63 | CC1(C(=O)c2ccccc2)C2c3c(ccc4ccccc34)OC(=O)C21C(=O)N1CCOCC1 (centres undefined) | inactive
64 | COc1ccc(N2C(=O)CC(c3cc(OC)c(OC)c(OC)c3)CC2=O)cc1 | inconclusive [activator, single point]
65 | CCCn1nnnc1SCC(=O)NCc1cccs1 | inconclusive [activator, single point]
66 | COc1ccc(/C=N/NC(=O)c2c(C)nc3ccc(Br)cn23)cc1OC | inconclusive [activator, full curve, poor fit]
67 | COc1cc(CNc2ccc(N3CCCC3)cc2)ccc1OCc1ccccc1F | inconclusive [activator, single point]
68 | O=[N+]([O-])c1cccc(-c2csc(N/N=C/c3cccc(O)c3)n2)c1 | inconclusive [activator, single point]
69 | COc1ccc(-n2nc(C(=O)NCC(=O)NCc3cccc(F)c3)c3ccccc3c2=O)cc1Cl | inconclusive [activator, partial curve, poor fit]
